# Results from publication PMC10726135.
# The other results are listed elsewhere or left out. At the low end of the ranking, values are background and their order means little. Measured with an extract: partners may take part in the binding.
# Molecular target: T1, HNF4alpha2 (COS-7 nuclear extract) (UniProt P41235)
# T1 sequence: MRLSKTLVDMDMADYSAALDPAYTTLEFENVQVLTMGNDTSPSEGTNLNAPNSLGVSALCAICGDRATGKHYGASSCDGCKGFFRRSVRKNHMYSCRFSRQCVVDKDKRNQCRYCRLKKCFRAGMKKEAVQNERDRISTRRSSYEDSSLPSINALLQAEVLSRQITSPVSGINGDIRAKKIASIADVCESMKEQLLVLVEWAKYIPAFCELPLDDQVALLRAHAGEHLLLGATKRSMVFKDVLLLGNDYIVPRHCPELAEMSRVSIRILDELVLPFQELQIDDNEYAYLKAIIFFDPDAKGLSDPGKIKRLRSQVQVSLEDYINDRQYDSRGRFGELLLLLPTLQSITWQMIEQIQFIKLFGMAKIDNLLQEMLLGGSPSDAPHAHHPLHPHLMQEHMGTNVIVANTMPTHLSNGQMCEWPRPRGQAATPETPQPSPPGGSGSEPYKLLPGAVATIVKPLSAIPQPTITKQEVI
# Assay: protein-binding microarray
# Settings: COS-7 nuclear extract on double-stranded Agilent 4x180k PBM; binding buffer, salt, pH and temperature not given; high values mean tight binding; double strand, one strand shown; sequences stand for … in …GCCTAGGGAGATTAGAGTATCGGTCGA
row,Sequence,binding signal (log2 normalized intensity)
1,CATCATAGTTATTCAGTACAGACTTGTGTA,1.98
2,ATGAATACATGAGTGATCCTGAAAACAAAT,-1.1
3,TACCAGTAGGACCACATTCAATCATGAACA,-1.08
4,TGTGCTGCCCTCTTGTGGCCATTTGGGAAA,1.34
5,TCCACTTCTGAGGAGAAGAATGAAAGCCAA,-1.09
6,AGTGTGTTGACATTTGAACCCAACCGTCCA,2.97
7,TGCTAAGATGGTCTCAGGTGGAGATAAGGA,0.439
8,GGGAGAAACCTGCCAGGTGGACCAAAACAC,-0.489
9,CAGGAAGTTCAGGCCTCGGCTTCATTAGCA,-1.17
10,CTCTGATTCTCCAGTCCGAAGGTCCACCCG,3.01
11,CTTGTTATATTGGATAGTGCCTTTTCTAAT,1.13
12,TGCGCTGGTTTTATGGTGTCTTATCTTCCT,1.78
13,CTCACAGAGTGGAGTCTTCCGTTTGATAGA,-0.436
14,CCGGTTTGGGGACTTCTCCCCAGAGCCTCT,-1.13
15,CTACAGGAGAACAAAGTTCACCTTTCCCTT,3.1
16,CATCTCGTCAAGGTGAAAAGCCTTTTGAAG,0.675
17,ACGCCCACTGCTTTGTTCCCTGGCTCACTG,-1.2
18,GTTAGAACAAAGTCCAAATTCCTAACTATG,3.04
19,GTCTGGGAAAGCTGCAGGCATGAGAGGTGC,-1.09
20,TGGGCGAGCCCTCTGATCTGACCCCTTCTT,4.91
21,GGAACACAAAGAAAGCCAAAGTTCACCCTT,2.13
22,ATGAGGCGGTTCATCCAACAGGTGAGGTGG,-0.172
23,GACATTCCAGCCTCCAGCTACTCACTCTTC,-1.05
24,ATATCCTGACTGCTGACCTTTAAGCCTATA,3.85
25,CAACCGGAAGTGGCTAGAGGTCGCGAGAGA,-0.757

row,Sequence,binding signal (log2 normalized intensity)
1,CTTTCCCTCCACCAAGTTTCCCACACTCAG,1.77
2,GTGCTTCTGGGGTATAAAGGTCAGGGATAG,3.72
3,TGGTGTTAAATCCTATCCTAGGGTTAAAGT,2.42
4,CTCATGAAGATTCTTTGGTTGGGAATAACA,1.05
5,CAGCAGGGTCTTTTTGACCTGTATCTTGTG,2.86
6,ATCAAGTCCGAACTCACTACAAACGCCTCT,-1.15
7,AATTCCAGGGCTGGGTCCAGGAATGTGCTA,-1.09
8,AACCCAGGCAATGACTCCAAAGTTCAAACT,3.35
9,CCATTTCCCATCCCCAGAGCCCCCTTGATG,4.82
10,AAGTGGCAATAAACTCCGTTATCACTCCTG,-0.915
11,CAGAACAGGCTGTTTTCCTATAGATTTGTT,0.233
12,AGAGAGCAGGAGCCACCTGTCACTCAATGC,-1.23
13,TGTTTCCACTCCAGCCTCTCCACCAGGGGA,-1.06
14,CTGTGAAAATTGGTACTGGACATGGTCTAA,1.42
15,AGTCAAAGGTCCCCACCACAAAGGCCAGAG,2.72
16,CATAAAGGACTTTCAACCCTGTGATGACCC,4.21
17,GAGTGGGATGGCCATTGTTCATACTGCAGC,-0.845
18,CACAGTATGTTAATGGCAGAATCAAAGGTC,4.36
19,CAACACACCTGTGGGTAATTAACTCCCCCT,3.09
20,GGGTGGTTCATTTGCACTTGTTTTTTCAGG,1.48
21,GCGGGGAAAAGGGAGTAAAGGTCACGCAGG,3.72
22,GTTCTGTGGAATTTGTGCTTATTTCCCATC,1.05
23,TAACTGTGCTTCTGGGGTATAAAGGTCAGG,4.92
24,GGGTCCTGGCAGCACCTGAAGAATTTGGAC,1.23
25,GGCTCCCAGTGGCCCCTGAGCACTGTCTCA,-1.15

row,Sequence,binding signal (log2 normalized intensity)
1,GCTGTGATGAGGCCAGCAGGGTGCCCCCTC,3.33
2,GCATACGCTAGCTTTCTGGTCTTTGTTCTT,1.88
3,ATCTCTTTGACACAAAGGGAGGCCTAGACA,-1.18
4,CTCTCTGTATTCCCTCTCTTCAGAATGGCC,1.63
5,CCTCTTTGAGTCTGGTGTTCTCTTGGCCAA,1.75
6,TTTAAAAACTTATCTTGTGACCTTTGACTC,8.33
7,GAGCACTTTTGGTATGCAAGGCATGGTGCT,-0.975
8,CAGCTGCGCGGCCTCCCCAGAGGCTGGTCA,-0.994
9,CCACAGGTCAATCCAGGTTGCTGCCTAGTT,-1.05
10,TAAAGGGGATTTTCTCAGCTCTCCTCTGCC,-1.06
11,TGTACACAGTTCAAAGGGCAGACAGGAACA,3.1
12,CATTTCTGTATCCCTGTTATCTGGCAGATA,0.925
13,GACTTCAAAGGCATTTCTGGACTTGGATCA,3.31
14,GGGAGTAGGGACAGCTAGTCTAGACTTTGC,3.32
15,TCAGGAATCGCATTGCAAAATCCATCTAAA,-1.1
16,CAGGTGTAAAGTCTGGCATACAGGGTCCAA,2.87
17,GTTAAAGTCCACATTCTTTAGCATATTACA,0.789
18,ATGGGCAGTCCCTATAGCCTCACTTGCTGA,-1.12
19,TGTCCAAGGGTCACTCGACATTCATCATGA,1.77
20,GGCACAGGAACCTGTTTTACAGGACATAGT,-1.27
21,TACTAATCCTCTTCTGTCCTCCTGTGGCCA,0.558
22,GGCTCAGGAGAAGGGCCCATGGGCTTCAGG,-1.06
23,GTGAGAACAGAGTCTCCGAGGAACCCAGAC,-1.16
24,GAGCCTAGGAGTTCAATGCTTCAGTGAGCC,-1.07
25,TAACCCATCTGGGGAAAGTGCAAGGGCCCA,-1.11

row,Sequence,binding signal (log2 normalized intensity)
1,TTTCAACTGCAGGGGGGTGGGCACCCCTGC,-1.25
2,AATTACCATTCTTGAGGACAGGCCAAATCC,0.0816
3,TATGTGGTGGGTGTGGTGATGGCAGGAGTC,1.39
4,GACCTCTGCCCTACTGTATATCCTGACACA,2.33
5,AGACATTGGCTAAATCATGGGGAGCATCTA,-0.871
6,GCTGCAGGAGAGATGGTCAGATTTTATTTA,-0.201
7,AACTTTGAAACAAGCCCATCTTCCAGAAAA,-1.05
8,TGGCAAATATCAGCATGGTATGTGGCTTGC,0.594
9,CAGTATAAACAACACAGAACTAGCCAGACC,-1.16
10,AATTGCTACTTCCGGCGTCGATTAGCTGGG,-0.0901
11,CTCATGCTAAAAGTTGAATTCTTGACTTTG,0.255
12,ATATCTTTGTCTCAGGAACTTTGTTTGTGT,2.49
13,TAACCCCAGTTTAGCAATTTGCTCTCTGCT,-0.945
14,AGCTATTGCTCTGCATGGATTAGCCAGCTA,-1.21
15,AAGTGGAGATTTCAGCCGCTTTGAGGTCAA,1.57
16,CAGCACTGGGTGGGGATAAGAAAAGATCAA,-1.1
17,TGCACAACGACCCTTGCTCTGTTTTCTGAC,1.89
18,TTGTTCCATGCCACAGAATCGCCCCACCCT,4.29
19,TTCCTGCATTAACATCAACATGGACTTTGA,8.62
20,CTGTAACACAGTTGCACTCACTAGCATTAG,-0.831
21,TTCAAGGTCCAGCCTACCCACCCACACCTC,3.33
22,CCCCCACCCTGTGTCAGCATCTAAACCTCT,2.29
23,TCGCACGGCAGAACTGGTGACCGGACACAA,-1.05
24,AGGGATTCCTGAAGATCGCAGACTTTGGAC,5.66
25,TTCTAACCAATGCAGCTGGGAGATAAGATA,-0.146

row,Sequence,binding signal (log2 normalized intensity)
1,TGGCTGCAGAGTGGGAGGCCAAGAGATAAA,-0.785
2,CCCAAACGAATGGGCAAAACATTCCTAAAC,-1.24
3,CAGATGGATTGATAGACTTATCTCAGCCTG,-0.761
4,GGTTTTAGGCTATCAGACAGCCACACTTTA,-1.11
5,GGGGAGCGTAAAACCACTGGCCCATTAGAA,-1.08
6,ACAGCTCCTGAGTCCACATGAGCCTCTTTA,-1.18
7,TTTGACTGGTGTGAGGTCAGTTGATAAACA,1.71
8,TGTGTTTCCTGGATTGTGAAACACAGGACT,0.725
9,ATCCAAAGGTCAGTGACAAATGTCAGACAA,2.35
10,CTAATGGAGAGGATGGGGACAAAGGTCAAG,7.24
11,CGCCAGGCGGGTTCTGCCATCTCGCAGAAA,-1.16
12,TGTCCTGTGATTAAGGTCAATGGGAAACTA,1.01
13,CCCCCTTTTGCTTTCCGTTAGGCTACAGTG,1.03
14,GCCTAGGTGACAAGGAAAACTACACTCTTG,-1.19
15,CAAACTCAATCCTGGCCTCTGAGGTGTTAA,0.846
16,TTTGGGTTTGAAGGCTCCGGAAACGTATGA,1.01
17,TCCCTGTGGTATTTGCTCTGTCATCAACGT,1.37
18,TTTGCTTTTTACCATCTCCAACATGACCAC,1.85
19,CTCCCAAAAGGTATTTTTTGAATGACAGTG,1.32
20,AGGCAGCCATTGACGGTATGTGAATGCCTG,-0.874
21,AAACGACTGATTCTCAGGCATCTCTGGGGG,-0.853
22,ATGAAGCAAGAGTCCAAATTCCTAGCCCTC,0.603
23,CGGGTCAGCAGGGCACCGCCTCCACACCCC,1.59
24,GAAACGTTTGAATTCTTGCCTATCCCATAG,-0.656
25,ATTTACTTACCTTTTCTAATCTCTCTCCCC,2.69

row,Sequence,binding signal (log2 normalized intensity)
1,GAGCAGCCTGGGGTAAAACCAAACTGCAGC,-1.12
2,GTGAAATGCCAGTGGGAAAACAAACTTTCC,-1.07
3,AGGTCAAACTATCTGAGGTGGTCCAGGGCC,-1.13
4,AGAAAGGCAGAAGGTTCCAGGGAACTGTCC,-1.08
5,TGGGCAATAAGCATTCTGTTTCCTACTGAC,-1.22
6,ATGCCTTTTCTTTCATGTTGTTTAGTCATG,2.25
7,AGCTAACATGTACAGTATTGCGTAAGTTGT,1.67
8,AGATCAAACAGGGACAGATGTTTGGTTGAG,1.07
9,TTATTGATTGCCTTTCATGTACTGTTCAGT,1.96
10,TTTTAAGAGCCCATCCTTGTTTTGGGGGTT,1.2
11,GCAGTCCATAAATGCTGTTGATAAAGTGAT,0.948
12,ATCAGTGTACCTGTCCCTACTCAATTATCA,-0.287
13,TTATCTTCCATGTATACTTATGTAGAAAGA,1.06
14,TGCGCCGCAGCGAATGGTCGCGCCGGGCGC,-1.2
15,TTAGCTCATTTCAGCCTTAACTCAAAAGGC,-1.16
16,TTCTGCCTTATCAGCGGCCCTGTGCTGCCC,0.0914
17,CCCCAGTGTCAATTCTCATTCATCCAAGGA,0.415
18,GAGTGCTATCCTCTTATCTGAATGTATGGG,1.87
19,ATGGCTGAGCTGTAAGGACATAAGCACTGA,-1.16
20,GGAGGAGACAGCTACGGAATGCTTCCTGGA,-1.26
